# Measured values reported in the supplement of paper PMC3334620.
# Whole data set: some 33,000 sequences, median “E-score (-0.5 to 0.5)” near -0.032, cut for the highest 2% near 0.36. This is one part of the list.
# Molecular target: T1, Sko1 (UniProt Q02100)
# T1 sequence: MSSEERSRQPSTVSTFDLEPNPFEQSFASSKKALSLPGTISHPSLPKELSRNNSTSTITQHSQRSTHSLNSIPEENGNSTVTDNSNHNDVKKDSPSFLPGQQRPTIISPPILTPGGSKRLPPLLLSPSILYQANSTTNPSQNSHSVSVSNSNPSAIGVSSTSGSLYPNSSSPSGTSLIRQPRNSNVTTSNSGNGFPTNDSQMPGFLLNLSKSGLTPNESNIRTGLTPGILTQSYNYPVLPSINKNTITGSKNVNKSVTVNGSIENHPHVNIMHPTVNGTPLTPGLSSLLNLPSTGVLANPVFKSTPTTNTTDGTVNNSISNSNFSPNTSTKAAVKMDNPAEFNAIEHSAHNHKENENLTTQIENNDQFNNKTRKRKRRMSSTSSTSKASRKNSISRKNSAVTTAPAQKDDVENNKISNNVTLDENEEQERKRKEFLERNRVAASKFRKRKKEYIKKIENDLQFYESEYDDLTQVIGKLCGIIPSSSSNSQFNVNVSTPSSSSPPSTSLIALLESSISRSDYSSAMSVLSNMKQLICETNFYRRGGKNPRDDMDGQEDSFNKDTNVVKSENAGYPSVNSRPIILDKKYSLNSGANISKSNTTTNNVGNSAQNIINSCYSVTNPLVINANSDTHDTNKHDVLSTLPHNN
# Experiment: PBM E-score (8-mer binding enrichment) (E-score (-0.5 to 0.5)); higher = stronger / more preferred TF binding; most listed sequences are background and not binding sites
# Conditions: protein concentration: 200 nM; construct: GST-full length
# Summary of the method: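 PURExpress in vitro transcription/translation supplied GST-tagged yeast transcription factors, either full-length or DNA-binding domain. Applied at about 100-200 nM to universal all-10-mer Agilent arrays double-stranded by primer extension, the bound protein was detected with fluorescent anti-GST. E-scores, modified Wilcoxon-Mann-Whitney statistics, were given by the Universal PBM Analysis Suite to ungapped eight-base words pooled with their reverse complements after masliner normalisation.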
row,Sequence,PBM E-score
1,TAAAAACA,0.28
2,ACCCGATG,-0.166
3,GCACAGCC,-0.408
4,CCAAACGC,-0.0857
5,TGGGTAAA,0.00575
6,CGGCGACA,-0.288
7,ACGTTGTG,0.311
8,AATGGGAG,-0.0434
9,GACTCCGA,-0.232
10,GAGAAATC,0.0021
11,ACGTCTCC,0.322
12,AATAAACA,0.258
13,AGGTGGGA,-0.261
14,ACCGCTGA,-0.105
15,GGCATATA,0.177
16,GTTCCAAA,0.0762
17,CTAGGGTA,-0.161
18,ACCTCGAC,-0.0495
19,AATCGGTG,0.0141
20,AATAGCAG,-0.195
21,AGGACACC,-0.242
22,ATTCTATC,0.119
23,GATCATGC,-0.0693
24,CGCTAGCG,-0.26
25,CAGGGGTA,-0.351

row,Sequence,PBM E-score
1,AACCTTGT,-0.166
2,ACCACTAG,-0.00471
3,ACCGTCAT,0.378
4,CGGCCCAG,-0.393
5,CCTCGACG,0.0174
6,TCTTCCCA,-0.252
7,AAGATGCT,-0.0361
8,GCGACAGC,-0.265
9,AAGAATGA,0.299
10,CCCGTCCG,-0.305
11,CCAATCCA,-0.214
12,ACTCCAGC,-0.326
13,GACTCCCC,-0.279
14,GCGGCGTA,-0.0389
15,AACCCCAC,-0.209
16,AACCCCAT,-0.219
17,CAAGCACG,0.188
18,ACATGGCA,0.033
19,ACATTGTG,0.0594
20,AAACACGG,0.0417
21,ACGCGAAG,0.122
22,AGAGGGGG,-0.379
23,ATTAATTA,0.218
24,AGGAGTGA,0.0137
25,AAACTACC,0.0275

row,Sequence,PBM E-score
1,CGTTTCGA,0.0568
2,ACGTGGCC,0.32
3,CAACCCGA,0.002
4,GTAGGAAA,-0.0388
5,GCTCCGTA,-0.033
6,CATTCAAA,0.163
7,AGCTCCCG,-0.224
8,ATATATAC,0.277
9,ATGCAACA,0.174
10,CACAGTCG,-0.151
11,TATATCCA,0.213
12,AACCAGGG,-0.229
13,GTGTCAAC,0.0369
14,AGAATTTG,0.0595
15,AAAGCTGG,-0.11
16,AACCCAGC,-0.247
17,GCCTATAA,-0.0696
18,GCGGACAC,-0.147
19,GCCTCAGA,-0.148
20,CAACCCCG,-0.188
21,CGAACTCC,0.113
22,AATTGTCT,0.0109
23,AGGGTTGG,0.0955
24,CAATTTTA,0.196
25,TACCGATA,-0.0394

row,Sequence,PBM E-score
1,TGGAACAA,0.12
2,CTTCGCAC,0.0556
3,AGTTACGG,-0.0826
4,AATGCGCA,0.146
5,GTCTCATA,0.00926
6,CAGACAGC,-0.322
7,GTGCGTAA,0.418
8,ACAAGAGC,-0.118
9,ATGTATTG,0.196
10,AATTCCTG,-0.136
11,AACAATAC,0.297
12,TCACCACA,0.00618
13,ATTACAAA,0.234
14,CAGGTATC,-0.128
15,CATTTTTC,0.162
16,AGACCCTA,0.0138
17,CAAGCCAC,-0.276
18,AAGTCTTC,-0.0255
19,AAATACGC,0.315
20,ATTCAGCG,0.046
21,ACAATTCG,0.124
22,AGATGTTC,-0.0104
23,GACCCACA,-0.0663
24,AAATCCGC,-0.298
25,CGGCACAA,-0.17

row,Sequence,PBM E-score
1,ATACGAAA,0.346
2,CCGCCCGA,-0.261
3,AAATCGAG,-0.0106
4,ACCAGGGG,-0.361
5,GGTTTGTA,-0.116
6,ACTAATAC,0.223
7,CGGCCTTC,-0.223
8,CCATGTAC,0.14
9,CGCTGCAC,0.00423
10,GCCGTAAC,-0.0523
11,CTGTTAAA,0.25
12,CAGCCGGA,-0.00661
13,AATACTGC,0.0392
14,ACGGCACC,-0.17
15,GCCCACAA,-0.221
16,ACTCCTTA,-0.222
17,CATTCCTA,0.011
18,TCGAATCA,0.0949
19,AAGTATAA,0.0788
20,GTGCCGCA,0.0521
21,TCATTCCA,0.106
22,AGCTCGAA,-0.0586
23,TCGAGGCA,-0.0108
24,CAATGGCG,0.0434
25,AAAAGCGC,0.0181

row,Sequence,PBM E-score
1,GAAATGGC,0.00268
2,ATTGTCAA,0.00012
3,AACTAACC,0.111
4,ACCTAAGT,0.0547
5,CGAGAGCC,-0.233
6,CAGTTACC,-0.18
7,GATAAATC,-0.0497
8,ACGGGACT,-0.12
9,TCCCTCCA,-0.243
10,ACGCCGCA,-0.0247
11,CAGCGGTA,-0.101
12,CATAGAAG,-0.0121
13,AGCCTAGA,-0.3
14,AATTGACA,0.0128
15,CGTAGGGC,0.114
16,ACGCTTCT,-0.0786
17,CCCGTACA,-0.273
18,GATAGCTA,-0.133
19,CGACTGAC,0.089
20,CAAATATC,0.109
21,GTACCAGA,-0.0638
22,TGGTTTAA,0.17
23,ATCTCGTG,-0.0602
24,ATTCCCCC,-0.217
25,ATCACTCC,-0.0415

row,Sequence,PBM E-score
1,ATACGCAG,0.296
2,CACGCCCC,-0.295
3,GCCAACAC,0.025
4,GAGCTGGA,-0.211
5,GTGCAGTA,-0.26
6,CAATCTTC,0.0427
7,AGATAGCG,0.136
8,AACGACCG,-0.162
9,AGTAAATA,0.13
10,ATCTCTGC,-0.108
11,CGACGCTC,-0.0536
12,GTTTGCAA,0.133
13,AGGTTGTC,-0.167
14,CTGGGCCC,-0.232
15,CTACGAGC,-0.0339
16,CCTAGTCG,-0.116
17,ATATTTTC,0.0908
18,ACGCTGTC,-0.0328
19,AAGGCCTC,-0.153
20,ACTCAAGA,-0.0785
21,CTGCACAC,-0.129
22,CGATTCGA,0.0224
